Experimental data from the supplement of paper PMC12217912.
Some of the results follow. The full chains were built here from the parent and the listed change. Inactive controls read about 0.05.

B1: TEV protease; numbered along this chain (parent)
chain: MGESLFKGPRDYNPISSSICHLTNESDGHTTSLYGIGFGPFIITNKHLFRRNNGTLVVQSLHGVFKVKDTTTLQQHLVDGRDMIIIRMPKDFPPFPQKLKFREPQREERICLVTTNFQTKSMSSMVSDTSCTFPSGDGIFWKHWIQTKDGQCGSPLVSTRDGFIVGIHSASNFTNTNNYFTSVPKNFMELLTNQEAQQWVSGWRLNADSVLWGGHKVFMVKPEEPFQPVKEATQL

Variants of: B1
Assay: raw area under fraction-flipped curve 0-4 h after induction (AUC4h, not background-subtracted), DNA-recorder readout of cleavage of the substrate (dimensionless); higher = more cleavage of the substrate by the protease variant
Conditions: temperature: 34 °C; time window: 0-4 h after rhamnose induction
Experimental: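 In vivo DNA recorder in E. coli TOP10(DE3) ΔrhaA at 34 °C. Each TEVp single-site mutant (parent TEVp 0) is paired with a single-site variant of the 7-mer TEVs (canonical ENLYFQ|S). The substrate sits between flexible linkers in a Bxb1-sfGFP-TEVs-SsrA fusion, so cleavage stabilises Bxb1 and speeds flipping of a recombination array, read by NGS. The value is the raw area under the fraction-flipped curve over 0-4 h after rhamnose induction (AUC4h), with ≥20 reads per time point. It is not background-subtracted; inactive controls average about 0.047.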
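Note: Bxb1 expression induced with 0.2% (w/v) L-rhamnose at OD600 near 0.5, cultures sampled hourly, flipped fraction per protease–substrate barcode pair counted by paired-end Illumina sequencing.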

Variant: MGESLFKGPRDYNPISSSICHLTNESDGHTTSLYGIGFGPFIITNKHLFRRNNGTLVVQSLHGVFKVKDTTTLQQHLVDGRDMIIIRMPKDFPAFPQKLKFREPQREERICLVTTNFQTKSMSSMVSDTSCTFPSGDGIFWKHWIQTKDGQCGSPLVSTRDGFIVGIHSASNFTNTNNYFTSVPKNFMELLTNQEAQQWVSGWRLNADSVLWGGHKVFMVKPEEPFQPVKEATQL [P94A]
- area with substrate ENLYFQC: 0.0983
- area with substrate ENLYFQH: 0.0737
- area with substrate ENLYFQL: 0.0588
- area with substrate ENLYFQP: 0.0612
- area with substrate ENLYFQR: 0.0431
- area with substrate ENLYFQS: 0.104
- area with substrate ENLYFQW: 0.0628
- area with substrate ENLYFQY: 0.0748

Variant: MGESLFKGPRDYNPISSSICHLTNESDGHTTSLYGIGFGPFIITNKHLFRRNNGTLVVQSLHGVFKVKDTTTLQQHLVWGRDMIIIRMPKDFPPFPQKLKFREPQREERICLVTTNFQTKSMSSMVSDTSCTFPSGDGIFWKHWIQTKDGQCGSPLVSTRDGFIVGIHSASNFTNTNNYFTSVPKNFMELLTNQEAQQWVSGWRLNADSVLWGGHKVFMVKPEEPFQPVKEATQL [D79W]
- area with substrate ENLYFQC: 0.0904
- area with substrate ENLYFQD: 0.0796
- area with substrate ENLYFQG: 0.116
- area with substrate ENLYFQH: 0.0807
- area with substrate ENLYFQI: 0.0438
- area with substrate ENLYFQL: 0.0648
- area with substrate ENLYFQM: 0.0949
- area with substrate ENLYFQN: 0.0782
- area with substrate ENLYFQP: 0.0489
- area with substrate ENLYFQR: 0.0866
- area with substrate ENLYFQS: 0.0886
- area with substrate ENLYFQT: 0.0478
- area with substrate ENLYFQV: 0.0538
- area with substrate ENLYFQW: 0.0696

Variant: MGESLFKGPRDYNPISSSICHLTNESDGHTTSLYGIGFGPFIITNKHLFRRNNGTLVVQSLHGVFKVKDTTTLQQHLVDGRHMIIIRMPKDFPPFPQKLKFREPQREERICLVTTNFQTKSMSSMVSDTSCTFPSGDGIFWKHWIQTKDGQCGSPLVSTRDGFIVGIHSASNFTNTNNYFTSVPKNFMELLTNQEAQQWVSGWRLNADSVLWGGHKVFMVKPEEPFQPVKEATQL [D82H]
- area with substrate ENLYFQC: 0.0544
- area with substrate ENLYFQF: 0.0591
- area with substrate ENLYFQH: 0.0564
- area with substrate ENLYFQI: 0.0536
- area with substrate ENLYFQL: 0.0555
- area with substrate ENLYFQN: 0.0683
- area with substrate ENLYFQR: 0.0206
- area with substrate ENLYFQS: 0.0569
- area with substrate ENLYFQT: 0.0563

Variant: MGESLFKGPRDYNPISSSICHLTNESDGHTTSLYGIGFGPFIITNKHLFRRNNGTLVVQSLHGVFKVKDTTTLQQMLVDGRDMIIIRMPKDFPPFPQKLKFREPQREERICLVTTNFQTKSMSSMVSDTSCTFPSGDGIFWKHWIQTKDGQCGSPLVSTRDGFIVGIHSASNFTNTNNYFTSVPKNFMELLTNQEAQQWVSGWRLNADSVLWGGHKVFMVKPEEPFQPVKEATQL [H76M]
- area with substrate ENLYFQC: 0.123
- area with substrate ENLYFQD: 0.113
- area with substrate ENLYFQG: 0.103
- area with substrate ENLYFQI: 0.064
- area with substrate ENLYFQK: 0.0699
- area with substrate ENLYFQL: 0.0535
- area with substrate ENLYFQM: 0.128
- area with substrate ENLYFQN: 0.0957
- area with substrate ENLYFQP: 0.0404
- area with substrate ENLYFQQ: 0.0817
- area with substrate ENLYFQR: 0.0538
- area with substrate ENLYFQS: 0.103
- area with substrate ENLYFQT: 0.0723
- area with substrate ENLYFQV: 0.0575
- area with substrate ENLYFQW: 0.066
- area with substrate ENLYFQY: 0.0798

Variant: MGESLFKGPRDYNPISSSICHLTNESDGHTTSLYGIGFGPFIITNKHLFRRNNGTLVVQSLHGVFKVKDTTTLQQHLVDGRDMIIIRMPKDFPPAPQKLKFREPQREERICLVTTNFQTKSMSSMVSDTSCTFPSGDGIFWKHWIQTKDGQCGSPLVSTRDGFIVGIHSASNFTNTNNYFTSVPKNFMELLTNQEAQQWVSGWRLNADSVLWGGHKVFMVKPEEPFQPVKEATQL [F95A]
- area with substrate ENLYFQC: 0.121
- area with substrate ENLYFQD: 0.058
- area with substrate ENLYFQG: 0.0839
- area with substrate ENLYFQH: 0.0816
- area with substrate ENLYFQM: 0.077
- area with substrate ENLYFQN: 0.0645
- area with substrate ENLYFQQ: 0.0702
- area with substrate ENLYFQR: 0.0471
- area with substrate ENLYFQS: 0.085
- area with substrate ENLYFQW: 0.0526
- area with substrate ENLYFQY: 0.0717

Variant: MGESLFKGPRDYNPISSSICHLTNESDGHTTSLYGIGFGPFIITNKHLFRRNNGTLVVQSLHGVFKVKDTTTLQQHLVDGRDMIIIRMPKDFPPFPQKLKFREPQEEERICLVTTNFQTKSMSSMVSDTSCTFPSGDGIFWKHWIQTKDGQCGSPLVSTRDGFIVGIHSASNFTNTNNYFTSVPKNFMELLTNQEAQQWVSGWRLNADSVLWGGHKVFMVKPEEPFQPVKEATQL [R106E]
- area with substrate ENLYFQC: 0.0919
- area with substrate ENLYFQD: 0.0839
- area with substrate ENLYFQF: 0.0537
- area with substrate ENLYFQG: 0.119
- area with substrate ENLYFQH: 0.0906
- area with substrate ENLYFQI: 0.057
- area with substrate ENLYFQK: 0.0687
- area with substrate ENLYFQR: 0.0564
- area with substrate ENLYFQS: 0.118
- area with substrate ENLYFQT: 0.066
- area with substrate ENLYFQW: 0.0778

Variant: MGESLFKGPRDYNPISSSICHLTNESDGHTTSLYGIGFGPFIITNKHLFRRNNGTLVVQSLHGVFKVKDTTTLQQHLVDGRDMIIIRMPKDFPPFPQKLKFREPQREERICLMTTNFQTKSMSSMVSDTSCTFPSGDGIFWKHWIQTKDGQCGSPLVSTRDGFIVGIHSASNFTNTNNYFTSVPKNFMELLTNQEAQQWVSGWRLNADSVLWGGHKVFMVKPEEPFQPVKEATQL [V113M]
- area with substrate ENLYFQC: 0.101
- area with substrate ENLYFQD: 0.0726
- area with substrate ENLYFQF: 0.0995
- area with substrate ENLYFQG: 0.0724
- area with substrate ENLYFQH: 0.0646
- area with substrate ENLYFQK: 0.0781
- area with substrate ENLYFQL: 0.0672
- area with substrate ENLYFQM: 0.0628
- area with substrate ENLYFQN: 0.0822
- area with substrate ENLYFQP: 0.0514
- area with substrate ENLYFQR: 0.0497
- area with substrate ENLYFQS: 0.0945
- area with substrate ENLYFQT: 0.0667
- area with substrate ENLYFQV: 0.0671
- area with substrate ENLYFQW: 0.0587
- area with substrate ENLYFQY: 0.0831

Variant: MGESLFKGPRDYNPISSSICHLTNESDGHTTSLYGIGFGPFIITNKHLFRRNNGTLVVQSLHGVFKVKDTTTLQQHLVDGRDMIIIRMPKDFPPFPQKLKFREPQREERNCLVTTNFQTKSMSSMVSDTSCTFPSGDGIFWKHWIQTKDGQCGSPLVSTRDGFIVGIHSASNFTNTNNYFTSVPKNFMELLTNQEAQQWVSGWRLNADSVLWGGHKVFMVKPEEPFQPVKEATQL [I110N]
- area with substrate ENLYFQC: 0.0436
- area with substrate ENLYFQD: 0.0674
- area with substrate ENLYFQF: 0.0626
- area with substrate ENLYFQG: 0.0391
- area with substrate ENLYFQH: 0.0625
- area with substrate ENLYFQI: 0.0427
- area with substrate ENLYFQK: 0.0383
- area with substrate ENLYFQL: 0.0547
- area with substrate ENLYFQM: 0.0303
- area with substrate ENLYFQQ: 0.069
- area with substrate ENLYFQR: 0.0611
- area with substrate ENLYFQS: 0.0569
- area with substrate ENLYFQT: 0.0557
- area with substrate ENLYFQY: 0.0566

Variant: MGESLFKGPRDYNPISSSICHLTNESDGHTTSLYGIGFGPFIITNKHLFRRNNGTLVVQSLHGVFKVKDTTTLQQHLVDGRDMIIIRMPKDFPPFPQKLGFREPQREERICLVTTNFQTKSMSSMVSDTSCTFPSGDGIFWKHWIQTKDGQCGSPLVSTRDGFIVGIHSASNFTNTNNYFTSVPKNFMELLTNQEAQQWVSGWRLNADSVLWGGHKVFMVKPEEPFQPVKEATQL [K100G]
- area with substrate ENLYFQC: 0.101
- area with substrate ENLYFQE: 0.0447
- area with substrate ENLYFQH: 0.0792
- area with substrate ENLYFQI: 0.0589
- area with substrate ENLYFQK: 0.0659
- area with substrate ENLYFQL: 0.063
- area with substrate ENLYFQM: 0.0849
- area with substrate ENLYFQN: 0.0516
- area with substrate ENLYFQP: 0.0717
- area with substrate ENLYFQQ: 0.0734
- area with substrate ENLYFQR: 0.0521
- area with substrate ENLYFQS: 0.0961
- area with substrate ENLYFQT: 0.0696
- area with substrate ENLYFQW: 0.0662
- area with substrate ENLYFQY: 0.0708
